# In PubChem BioAssay AID651820 (National Center for Advancing Translational Sciences (NCATS), 2012):
# The campaign covered roughly 340,000 compounds. About 12,000 (3.5%) were called active. Inconclusive means that the source gave no clear call. Such entries were picked first, then a sample of the others. Calls follow the shape of the dose curve; as a rule, active = well fitted inhibition curve with a large enough effect; inconclusive = small, poorly fitted or top-dose-only effect, or another doubt; inactive = no such curve, though single readings can be large or run the other way. Potencies of inconclusive entries are left out as doubtful fits.
# Assay: qHTS Assay for Inhibitors of Hepatitis C Virus (HCV)
# Settings: Huh7.5.1 HCVcc-Cre (HCVcc is cell-culture hepatitis C virus) infection, luciferase reporter, 44 h; activity change, negative = inhibition: at 41.8 µM (top of the series)
# Outline: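 Infectious HCVcc-Cre (~0.5 moi) was added to cells just after compound, with cells seeded 4 h earlier at 1,000 per well. Luciferase activity after 44 h culture reported infection; substrate was incubated 15 min at room temperature before reading.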
# % is scaled to controls: 0 for no effect and ±100 for the full control effect; potency is read from the fitted curve at half-maximal effect; tags tell the direction and shape of the fitted curve.
SMILES,Potency,"activity change, negative = inhibition"
COc1ccc(S(=O)(=O)NCC(=O)Nc2ccc(F)cc2)cc1,"inconclusive [inhibitor, single point]",–
COc1ccccc1NS(=O)(=O)c1cccc(C(=O)NC2CCN(Cc3ccccc3)CC2)c1,"inconclusive [inhibitor, partial curve, poor fit]",–
COc1cccc(-c2nc(NC(C)(C)C)c3ccccc3n2)c1O,"inconclusive [inhibitor, partial curve, poor fit]",–
CC(/C=N/NC(=O)CNc1n[nH]c(=O)[nH]c1=O)c1ccccc1 (centres undefined),inactive,–
CCNc1nc(SC(C)C(=O)Nc2ccccc2)nc(N2CCOCC2)n1 (centres undefined),"inconclusive [inhibitor, partial curve]",–
COCCN(CCOC)C(=O)c1cc2sc3ccccc3c2s1,"inconclusive [inhibitor, single point]",–
Cc1cccc(NC(=S)N/N=C/c2ccc([N+](=O)[O-])s2)c1,active: 8.91 µM,–
COc1ccc(N(C(=O)Cn2nnc3ccccc32)C2(C(=O)NC3CCCC3)CCCCC2)cc1,active: 5.62 µM,–
COc1cc2c(C)nc3onc(-c4ccccc4)c3c2cc1OC,"inconclusive [inhibitor, partial curve]",–
COc1ccc(CN2CC(=O)N(c3cc(Cl)ccc3C)C2=S)cc1OC,"inconclusive [inhibitor, single point]",–
CCn1c(SCC(=O)Nc2ccc3c(c2)OCO3)nc2ccccc21,"inconclusive [inhibitor, partial curve]",–
Cc1cc(N/N=C/c2ccc(F)cc2)nc(NCc2ccccc2)n1,active: 11.2 µM,–
Cc1ccccc1NC(=O)Cc1nc(COC(=O)c2ccc(Cl)nc2)cs1,"inconclusive [inhibitor, full curve]",–
COc1cccc(CNC(=O)COC(=O)/C=C/c2ccc(SC)cc2)c1,inactive,–
CO/N=C/c1ccc(Oc2ccc([N+](=O)[O-])cc2[N+](=O)[O-])c(OC)c1,"inconclusive [inhibitor, partial curve]",–
CC(=O)Nc1ccc(NC(=O)COC(=O)C2(c3ccc(Cl)cc3)CCCC2)cc1,"inconclusive [inhibitor, single point]",–
O=C(Nc1ccccc1C(=O)NCc1cccnc1)c1ccccc1Cl,"inconclusive [inhibitor, partial curve]",–
CCCCCCCCCCCCN1[C@@H](CC(C)=O)c2cc(F)cc(F)c2S1(=O)=O,inactive,–
COc1ccc(C(=O)n2c(-c3ccco3)nc3ccccc32)cc1,inactive,–
O=C(c1ccco1)N(Cc1ccccc1)Cc1ccccn1,inactive,–
CCCOc1cc(NCc2ccccc2)c2ncn(C(C)C)c2c1,"inconclusive [inhibitor, full curve]",–
O=C(Nc1cccc(Cl)c1)Nc1nnc(-c2ccncc2)s1,"inconclusive [inhibitor, partial curve, poor fit]",–
COc1ccc(C(=O)Nc2cccc(OC(=O)c3ccc(C)c(C)c3)c2)cc1,"inconclusive [inhibitor, partial curve]",–

SMILES,Potency,"activity change, negative = inhibition"
O=C(NCc1ccccc1)c1ccc(Br)o1,"inconclusive [inhibitor, partial curve, poor fit]",–
CCCCOc1ccccc1NC(=O)c1ccco1,"inconclusive [inhibitor, partial curve, poor fit]",–
CCOc1ccccc1OCC(=O)NNC(=O)Cn1cnc2c1c(=O)n(C)c(=O)n2C,inactive,–
C/C(N)=C(/C#N)C(=O)COC(=O)c1ccccc1Cc1ccccc1,"inconclusive [inhibitor, partial curve]",–
COc1ccc(-n2c(-c3ccc(Cl)cc3)c[nH]c2=S)cc1,"inconclusive [inhibitor, single point]",–
COc1cccc(C(C(=O)NC2CCCC2)N(Cc2cccnc2)C(=O)Cc2cccs2)c1 (centres undefined),"inconclusive [inhibitor, single point]",–
N#CC(C#N)=Cc1ccc(-c2ccc(S(=O)(=O)N=C(N)N)cc2)o1,"inconclusive [inhibitor, single point]",–
COc1ccc(C=NNC(=O)c2cc(C)oc2C)cc1O,"inconclusive [inhibitor, single point]",–
Cc1cc2nc3n(c2cc1C)CC1CC(C(=O)NCc2cccc(C(F)(F)F)c2)N(C)C31 (centres undefined),"inconclusive [inhibitor, partial curve]",–
CCc1ccc(NC(=O)Cn2nnc(C(=O)NCCc3ccc(OC)c(OC)c3)c2N)cc1,"inconclusive [inhibitor, full curve]",–
Cc1ccc(NC(=O)CC2Nc3ccccc3NC2=O)cc1Cl (centres undefined),"inconclusive [inhibitor, single point]",–
COc1ccc(CNCCC(c2ccc(OC(C)C)cc2)c2ccccc2OC)cc1 (centres undefined),"inconclusive [inhibitor, single point]",–
Cc1cc2c(sc3c(C)ccc(C)c32)c(C)n1,–,inconclusive: -67.6% [inhibitor]
COc1cc(OC)c2c(-c3cccc(-c4ccc(O)cc4)c3)cc(=O)oc2c1,"inconclusive [inhibitor, partial curve]",–
COc1cccc(-c2cc(C(F)(F)F)n3nc(C(=O)N4CCCCC4c4cccnc4)cc3n2)c1 (centres undefined),active: 5.62 µM,–
CC(CCc1ccccc1)NC(=O)c1ccc(F)cc1 (centres undefined),inactive,–
O=C(N/N=C/c1c(Cl)cccc1Cl)c1n[nH]c2c1CCCC2,"inconclusive [inhibitor, single point]",–
COc1ccc(NC(=O)COC(=O)CCSc2ccccc2)cc1OC,inactive,–
COc1ccc(C2=NOC(Cn3c(Cc4ccc(Cl)cc4)nc4c3c(=O)n(C)c(=O)n4C)C2)cc1 (centres undefined),active: 1.41 µM,–
N#C/C(=C\c1cn[nH]c1-c1ccc(Cl)cc1)C(=O)NCc1ccccc1,"inconclusive [inhibitor, single point]",–
Cc1cccn2c(=O)c(C=O)c(N3CCCCC3)nc12,inactive,–
COc1cccc(/C=C/C(=O)N2CCN(c3ccccn3)CC2)c1,inactive,–
O=C(/C=C/NNC(=O)c1ccccc1)c1ccc(Br)cc1,active: 2.24 µM,–

SMILES,Potency,"activity change, negative = inhibition"
Cc1cnc(CN2CCc3c([nH]c4ccccc34)C2CC(C)C)[nH]1 (centres undefined),inactive,–
O=C(CCN1c2ccccc2Sc2ccccc21)Nc1ccccc1,active: 12.6 µM,–
CC(=NNC(=O)c1ccncc1)c1ccc2ccccc2c1O,"inconclusive [inhibitor, full curve]",–
COc1ccccc1N1CCN(C(=O)CCc2ccc(S(=O)(=O)NC(C)C)cc2)CC1,"inconclusive [inhibitor, single point]",–
COc1ccc(/C=C2\CCc3ccccc3C2=O)cc1Cn1nc(C)cc1C,"inconclusive [inhibitor, single point]",–
O=C(Nc1cccc(S(=O)(=O)N2CCCCC2)c1)c1ccc(OCC2CCCO2)cc1 (centres undefined),"inconclusive [inhibitor, single point]",–
CC(C)(C)C1CCC(OCC(O)CN2CCN(Cc3ccccc3)CC2)CC1 (centres undefined),active: 31.6 µM,–
CC(C)(C)OC(=O)N(CCc1ccccc1)Cc1cccc(OCc2cccc(NC(=O)C3CC3)c2)c1,"inconclusive [inhibitor, partial curve, poor fit]",–
Cc1ccc(Nc2nc(CSc3nnc(-c4ccccc4)n3C)cs2)cc1,"inconclusive [inhibitor, single point]",–
O=C(C1=C[C@@H](C2CC2)C[C@@H](OCc2ccc(CO)cc2)O1)N1CCN(Cc2ccccc2)CC1,"inconclusive [inhibitor, single point]",–
CCN1C(=O)C(=C2C=C(C)OC(C)=C2)C(=O)N(CC)C1=S,inactive,–
CCOC(=O)c1ccc(NC(=O)c2sc3nc4n(c(=O)c3c2C)CCC4)cc1,"inconclusive [inhibitor, partial curve]",–
N#Cc1cnn2c(-c3ccc(Cl)cc3Cl)ccnc12,"inconclusive [inhibitor, single point]",–
N=c1c2c3c(sc2ncn1CCN1CCOCC1)CCCC3,"inconclusive [inhibitor, single point]",–
CSc1ccc(C(=O)C2CCCN(S(=O)(=O)c3c(C)noc3C)C2)cc1 (centres undefined),"inconclusive [inhibitor, single point]",–
COc1ccc(N(CC(=O)NCCSC2CCCCC2)S(=O)(=O)c2ccccc2)cc1OC,"inconclusive [inhibitor, single point]",–
O=C(Nc1ccc(N2CCOCC2)nc1)c1ccc(C(F)(F)F)cc1,active: 7.08 µM,–
O=C(NC(=O)c1ccccc1)Nc1ccc(Cl)cn1,inactive,–
CCS(=O)(=O)c1c(S(=O)(=O)CC)c2ccccn2c1C(N)=O,inactive,–
CCN1C(=O)[C@H]2[C@@H](c3ccc(-c4ccc(C(C)=O)cc4)c(OC)c3)N[C@@](Cc3ccccc3)(C(=O)OC)[C@H]2C1=O,"inconclusive [inhibitor, partial curve]",–
COc1ccc(N(C(=O)CCl)C(C(=O)NCCc2ccccc2)c2cccs2)cc1 (centres undefined),active: 5.62 µM,–
O=C(CSc1ccc(-c2ccc(Cl)cc2)nn1)Nc1ccc2c(c1)OCCO2,"inconclusive [inhibitor, single point]",–
COC(=O)C1=C(C)N(Cc2ccccc2)C(=NCCc2ccccn2)N[C@H]1c1cccc(C(F)(F)F)c1,"inconclusive [inhibitor, single point]",–
